# In all, about 310,000 compounds went through this assay and about 2,200 (0.71%) showed an effect of 50% or more. The effect is printed as a negative number. Some of the results follow.
# Target: human ether-à-go-go-related gene (hERG) potassium channel (human, UniProt Q12809)
# Test: primary screen, population patch clamp on CHO cells stably expressing hERG
# Sequence of human ether-à-go-go-related gene (hERG) potassium channel (Q12809 whole entry, looked up): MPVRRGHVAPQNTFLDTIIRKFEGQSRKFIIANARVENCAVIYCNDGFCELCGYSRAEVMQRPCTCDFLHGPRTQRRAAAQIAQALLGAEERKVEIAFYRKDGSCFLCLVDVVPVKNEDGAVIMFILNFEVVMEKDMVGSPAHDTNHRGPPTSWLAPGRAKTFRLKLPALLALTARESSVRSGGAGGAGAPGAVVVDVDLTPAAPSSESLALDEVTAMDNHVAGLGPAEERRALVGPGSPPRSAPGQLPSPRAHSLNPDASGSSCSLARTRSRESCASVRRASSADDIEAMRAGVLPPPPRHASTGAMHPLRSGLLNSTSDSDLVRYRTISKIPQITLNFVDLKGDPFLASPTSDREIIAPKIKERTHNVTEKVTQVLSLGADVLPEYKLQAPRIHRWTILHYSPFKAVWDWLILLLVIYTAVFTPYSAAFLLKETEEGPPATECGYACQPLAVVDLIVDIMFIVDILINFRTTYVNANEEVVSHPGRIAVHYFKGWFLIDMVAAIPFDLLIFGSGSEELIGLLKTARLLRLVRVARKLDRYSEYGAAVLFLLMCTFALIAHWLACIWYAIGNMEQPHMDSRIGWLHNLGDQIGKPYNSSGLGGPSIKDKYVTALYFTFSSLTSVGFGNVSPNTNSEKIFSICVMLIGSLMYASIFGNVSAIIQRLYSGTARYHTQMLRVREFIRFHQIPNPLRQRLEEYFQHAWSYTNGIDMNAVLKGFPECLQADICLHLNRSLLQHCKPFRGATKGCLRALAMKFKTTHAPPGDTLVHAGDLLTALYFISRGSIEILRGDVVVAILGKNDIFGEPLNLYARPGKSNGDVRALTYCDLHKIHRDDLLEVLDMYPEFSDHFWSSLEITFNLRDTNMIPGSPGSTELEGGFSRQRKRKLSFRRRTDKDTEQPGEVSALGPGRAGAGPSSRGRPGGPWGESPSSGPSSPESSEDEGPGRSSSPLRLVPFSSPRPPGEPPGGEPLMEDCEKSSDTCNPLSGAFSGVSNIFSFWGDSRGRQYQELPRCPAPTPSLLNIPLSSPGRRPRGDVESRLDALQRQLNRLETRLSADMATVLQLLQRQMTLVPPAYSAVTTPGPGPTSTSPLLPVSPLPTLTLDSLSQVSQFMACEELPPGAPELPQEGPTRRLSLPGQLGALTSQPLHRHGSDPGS
row,SMILES,"hERG current change (%, negative = inhibition) at 1uM"
1,CN(C(=O)c1ccncc1)c1nnc(-c2ccccn2)s1,7.02%
2,CN1CC(c2ccccc2)C(c2ccc(Cl)cc2)=N1 (stereo not drawn),5.03%
3,CCCn1c(=S)[nH]c2cc(C(=O)N3CCN(C(=O)OCC)CC3)ccc2c1=O,15.8%
4,COC(=O)c1ccccc1NC(=O)c1ccc2nccnc2c1,-2.37%
5,Cc1cc(C)c(NC(=O)CSc2nnc(-c3ccncc3)n2Cc2ccco2)c(Cl)c1,-38.1%
6,O=C(Oc1ccnc2cc(Cl)ccc12)N1CCCCCC1,2.62%
7,O=C(Nc1cccc(Cl)c1)c1ccc(S(=O)(=O)NCC2CCCO2)cc1 (stereo not drawn),9.78%
8,Cc1ccc(N(Cc2cc3ccc(C)cc3[nH]c2=O)C(=O)c2cccs2)cc1,4.88%
9,Cc1ccc(NC(=S)NCc2ccccn2)cc1,6.04%
10,CCC1=NN(C(=O)C(=O)Nc2ccccc2OC)C(O)(C(F)(F)F)C1 (stereo not drawn),14.5%
11,COCc1cc(C)nc(Oc2ccccc2)c1C#N,15.1%
12,Clc1ccc2c(c1)C1OCCC1C(c1ccco1)N2 (stereo not drawn),9.62%
13,CC(=O)c1ccc(S(=O)(=O)N(C)CCCC(=O)N(C)Cc2ccccc2F)cc1,4.24%
14,C=CCNC(=O)/C(C#N)=C/c1cn(-c2ccccc2)nc1-c1ccc(OC)c([N+](=O)[O-])c1,13.2%
15,CC(=C1C2C=CC1C1C(=O)NC(=O)C21)c1ccccc1 (stereo not drawn),-4.52%
16,CC(=O)NC(C)c1nc2ccccc2n1CC(=O)NC(C)CCc1ccccc1 (stereo not drawn),2.49%
17,CC(Sc1nnc2ccccn12)C(=O)Nc1ncc(Cl)cc1Cl (stereo not drawn),6.98%
18,CCOC(=O)c1oc2ccc(S(=O)(=O)n3nc(-c4cc(OC)c(OC)c(OC)c4)cc3N)cc2c1C,-5.2%
19,Cl.O[C@@H]1CCCC[C@H]1N1CCC(c2ccccc2)CC1,14%
20,O=C(NC1C2CC3CC(C2)CC1C3)c1ccc2c(c1)OCO2 (stereo not drawn),16%
21,Cc1ccc(N2C(=O)c3ccc(C(=O)N4CCN(c5cccc(C)c5C)CC4)cc3C2=O)cc1,-1.93%
22,COC(=O)Cn1cnc2c(nnn2-c2ccc(OC)cc2)c1=O,20.1%
23,Cc1cc(C)c(S(=O)(=O)N2CCOC2CNC(=O)C(=O)NCCCN2CCOCC2)c(C)c1 (stereo not drawn),14.3%
24,COc1ccc(NC(=O)C(c2ccc(OC)cc2)N(C)C(=O)CC2NC(=O)NC2=O)cc1 (stereo not drawn),17.1%
25,Cc1noc(C)c1COC(=O)c1cccc(S(=O)(=O)N2CCCCCC2)c1,0.182%
26,CN(C)CCN1C(=O)C(=O)/C(=C(/O)c2ccc3c(c2)OCCO3)C1c1ccccn1 (stereo not drawn),13.3%
27,CC(C)CN1C(=O)NC2(CCCc3ccccc32)C1=O (stereo not drawn),1.77%

row,SMILES,"hERG current change (%, negative = inhibition) at 1uM"
1,O=C(N/N=C/c1coc2ccccc2c1=O)c1cn(-c2ccccc2)nc1-c1ccccc1,14.4%
2,CCOc1ccc(S(=O)(=O)N(C)CC(=O)N2CCN(CC)CC2)cc1,9.39%
3,O=C(CSc1ccc(Cl)cc1)Nc1cccc(NC(=O)c2ccco2)c1,3.88%
4,O=C1N=C(N2CCCCC2)S/C1=C\c1ccccc1F,8.44%
5,CC(=O)c1cccc(NC(=O)Cn2cnc(S(=O)(=O)N3CCCCC3)c2)c1,14.1%
6,CCOC(=O)CSc1nc2cc3c(cc2cc1C)OCO3,9.2%
7,NC(=S)N/N=C/c1coc2ccc(O)cc2c1=O,-7.72%
8,COc1ccc(NC(=O)CN2C(=O)c3ccccc3S2(=O)=O)cc1OC,10.1%
9,C/C(=N/NC(=O)CNC(=O)C(c1ccccc1)c1ccccc1)c1ccco1,10.9%
10,COC(=O)c1cc(Cl)cc2c(C)c(C3(O)CCCCC3)[nH]c12,11.6%
11,Cc1noc(C)c1S(=O)(=O)Nc1cccc(C(F)(F)F)c1,14.2%
12,COc1cccc(C(=O)N2C[C@H]3C[C@@H](C2)c2cccc(=O)n2C3)c1,9.82%
13,CC(=O)Nc1cccc(NC(=O)COC(=O)CO/N=C(\C)c2ccc3c(c2)OCO3)c1,8.95%
14,Cc1ccc(NC(=S)NNc2ccc([N+](=O)[O-])cc2S(=O)(=O)Nc2ccccc2C(=O)O)cc1C,11%
15,Nn1c(SCC(=O)NCCC2=CCCCC2)nnc1C(F)(F)F,-6.35%
16,O=C(N/N=C/c1cc(Br)ccc1O)C(=O)Nc1ccccc1OC(F)(F)C(F)F,2.65%
17,Cc1ccc(S(=O)(=O)N(C)CCCC(=O)N2CCN(c3ccccn3)CC2)cc1.[O-][Cl+3]([O-])([O-])O,-10.1%
18,CC(=O)c1cccc(Nc2ncnc3ccc(Br)cc23)c1,-2.27%
19,O=C(ONC1=NCCCCC1)c1ccc([N+](=O)[O-])cc1,13.7%
20,CNc1ccc2oc(C[C@H]3O[C@@]4(CC[C@H]3C)O[C@H]([C@H](C)C(=O)c3ccc[nH]3)[C@H](C)C[C@H]4C)nc2c1C(=O)O,14.2%
21,O=C(COC(=O)c1ccc(F)cc1Cl)Nc1cccc(S(=O)(=O)N2CCOCC2)c1,5.46%
22,Br.O=C(CN1C2=NCCCN2c2ccccc21)c1ccc([N+](=O)[O-])cc1,-54%
23,CCCCN(CCCC)c1cn[nH]c(=O)c1Cl,5.35%
24,COc1ccc(CCNC(=O)c2cnn(-c3ccc(C)c(C)c3)c2NC(=O)c2ccco2)cc1OC,4.54%
25,CC(C)(Oc1ccc(Cl)cc1)C(=O)Nc1ccncc1,-6.08%
26,Cc1nc2ccccn2c1/C(O)=C1\C(=O)C(=O)N(CCCn2ccnc2)C1c1ccncc1 (stereo not drawn),1.38%
27,O=S(=O)(NCCc1ccncc1)c1ccc(S(=O)(=O)N2CCCCCC2)cc1,-1.37%

# Reference: PMC4336329 (PLoS ONE, 2015)
